Several values for one entry are separate records, joined by “and”; a condition that tells them apart may be missing. Equal values may be shown once. The campaign covered roughly 75,000 compounds. About 15 (0.02%) were called active. The shares of active, inactive and inconclusive entries below differ from those in the screen. The call rests on the fitted dose curve; in most records, active means well fitted inhibition curve with a large enough effect in the main read-out, with a control signal flat (not every such curve was filed as active); inconclusive means small, poorly fitted or top-dose-only effect, or a change in a side signal; inactive means flat fitted curve, though single readings scatter. Potencies of inconclusive entries are doubtful fits and often do not repeat. A note “side channel” means that the fit belongs to a control or component signal, not to the main read-out.
target: Caspase-7 (Homo sapiens) (UniProt P55210); test: qHTS Assay for Allosteric/Competitive Inhibitors of Caspase-7; conditions: recombinant caspase-7, Ac-DEVD-AFC fluorescence rate; series mostly up to 57.5 µM
Chain of UniProt P55210 (P55210 whole entry, looked up): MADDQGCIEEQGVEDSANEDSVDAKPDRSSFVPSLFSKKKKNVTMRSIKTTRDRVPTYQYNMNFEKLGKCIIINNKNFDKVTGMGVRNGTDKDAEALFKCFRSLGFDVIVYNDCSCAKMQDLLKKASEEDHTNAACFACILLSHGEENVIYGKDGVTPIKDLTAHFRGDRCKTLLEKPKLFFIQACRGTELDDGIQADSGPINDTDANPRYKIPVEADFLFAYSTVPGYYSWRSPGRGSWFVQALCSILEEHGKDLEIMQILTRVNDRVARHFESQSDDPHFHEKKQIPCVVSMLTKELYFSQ
Potency means the concentration at half of the fitted maximal effect; tags describe the fitted curve by direction and shape or compound fluorescence and quenching.

Structure (SMILES)	Potency
COc1ccccc1C1C=C(c2ccc(C)cc2)Nc2nnnn21 (configuration not stated)	inconclusive: 20 µM [fluorescent, side channel, partial curve]
COc1cccc(Cn2c(=O)c(-c3cccs3)nc3cnc(N4CCOCC4)nc32)c1	inconclusive: 3.16 µM [fluorescent, side channel, full curve]
CN(C)c1ccc(C(=S)NCc2ccco2)cc1	inactive
CN1CCN(c2ncc3nc(-c4cc(F)cc(F)c4)c(=O)n(C)c3n2)CC1	inconclusive: 10 µM [fluorescent, side channel, partial curve]
N#CCCn1c(=O)c(-c2cccs2)nc2cnc(Oc3ccccc3)nc21	inconclusive: 12.6 µM [fluorescent, side channel, partial curve]
COc1ccc(Oc2ncc3nc(-c4ccc(Cl)cc4)c(=O)n(C[C@H]4CCCO4)c3n2)cc1	inconclusive: 25.1 µM [fluorescent, side channel, single point]
CCCCNC(=O)c1ccc(Cc2nc3ccccc3[nH]2)cc1	inactive
COCCn1c(=O)c(-c2cn(C)c3ccccc23)nc2cnc(Oc3cccc(Cl)c3)nc21	inconclusive: 2 µM [fluorescent, full curve]
O=C(c1cccn2c(=O)c3ccc(Cl)cc3nc12)N1CCN(Cc2ccc3c(c2)OCO3)CC1	inconclusive: 3.16 µM [inhibitor, full curve]
Cc1ccc2cc(C#N)c(NCCNC(=O)C3CC3)nc2c1C	inconclusive: 25.1 µM [fluorescent, side channel, partial curve]
O=S(=O)(Nc1ccc(-c2nc3cccnc3s2)cc1)c1cccs1	inconclusive: 3.98 µM [inhibitor, partial curve]
CCNc1ncc2nc(-c3ccc(F)cc3)c(=O)n(C)c2n1	inconclusive: 1 µM [fluorescent, side channel, full curve]
O=C1c2cccc3cccc(c23)N1CN1CCN(c2ccccn2)CC1	inconclusive: 25.1 µM [inhibitor, single point]
Cc1cc2c(ccc3[nH]onc32)n1	inconclusive: 25.1 µM [inhibitor, single point]
COc1cc2ccc(=O)oc2c(O)c1O	inconclusive: 20 µM [fluorescent, side channel, partial curve] and inconclusive: 15.8 µM [fluorescent, partial curve]
c1ccc2sc(N3CCN(Cc4nnnn4CC4CCCO4)CC3)nc2c1 (configuration not stated)	inactive
CCNc1sc(C(=O)c2cccs2)c(N)c1-c1nc2ccccc2s1	inconclusive: 25.1 µM [inhibitor, single point]

Reference: PubChem BioAssay AID889 (National Center for Advancing Translational Sciences (NCATS), 2007)
